{
  "source": "paper PMC7819943",
  "about": "“Rice protein-binding microarrays: a tool to detect cis-acting elements near promoter regions in rice”",
  "note": "Some of the results follow.",
  "data": [
    {"target": "T1, OsWOX13 (Oryza sativa, UniProt Q5QMM3 1-267)", "T1 sequence": "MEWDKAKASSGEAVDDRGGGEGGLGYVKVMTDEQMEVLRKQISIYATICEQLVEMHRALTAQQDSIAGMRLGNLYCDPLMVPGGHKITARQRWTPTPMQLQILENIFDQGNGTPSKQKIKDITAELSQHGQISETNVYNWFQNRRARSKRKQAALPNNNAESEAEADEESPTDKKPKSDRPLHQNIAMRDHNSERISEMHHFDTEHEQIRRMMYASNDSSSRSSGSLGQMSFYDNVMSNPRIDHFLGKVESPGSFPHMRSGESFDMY", "test": "protein-binding microarray (RPBM); PBS, 2% BSA, 51.3 ng/ul salmon testes DNA, 50 uM zinc acetate, 200 nM TF, 25 C, 1 h; high values mean tight binding", "conditions": "protein: recombinant; tags: N-terminal polyhistidine and DsRed monomer fusion (pET32a); label: CyDye5-dUTP incorporated in the synthesized complementary strand; 3' TTTTT single-stranded linker to array surface; dsDNA, one strand shown", "in_short": "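Transcription factors were each fused at the N-terminus to a polyhistidine tag plus DsRed and expressed in E. coli BL21-CodonPlus before Ni–NTA purification. Binding to a double-stranded custom Agilent array was carried out with 200 nM protein at 25 °C for 1 h in PBS, 2% BSA, salmon testes DNA and 50 µM zinc acetate. The binding signal is per-feature fluorescence intensity, in arbitrary units, on an Axon 4000B scanner.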", "values": [
      {"sequence": "TCTGTAAATAGATGGATGAACAGAGTATCTGTAGTCTGTACGGAGTCACCTAGTGCAG", "binding signal": "12200 fluorescence intensity (a.u.)"},
      {"sequence": "ATGATGATGTATTTGATGTTGCATGCTTTGAATGAGTATTCGGAGTCACCTAGTGCAG", "binding signal": "7940 fluorescence intensity (a.u.)"},
      {"sequence": "TTTTGATTCGATTGGATGAATGGTATACTTAGTATGGAATCGGAGTCACCTAGTGCAG", "binding signal": "8200 fluorescence intensity (a.u.)"},
      {"sequence": "GTTTTGTGACACATTTTCTAATTTACAACACGGCACTCCACGGAGTCACCTAGTGCAG", "binding signal": "3160 fluorescence intensity (a.u.)"},
      {"sequence": "GCTAATTAATAATTATGGTTGAACATAGCTGTAAAGATGCCGGAGTCACCTAGTGCAG", "binding signal": "49800 fluorescence intensity (a.u.)"},
      {"sequence": "TGTGAAATTTACTCAATCTTGAGTCGGACCATCGTTGTCTCGGAGTCACCTAGTGCAG", "binding signal": "10500 fluorescence intensity (a.u.)"},
      {"sequence": "GGTGTAATTAGCTATCCTGTGAAAAGGTGTATTGGATCATCGGAGTCACCTAGTGCAG", "binding signal": "22500 fluorescence intensity (a.u.)"},
      {"sequence": "GCATTTGCTAATGATGGATTAATTAGGCTTAATAGATTCGCGGAGTCACCTAGTGCAG", "binding signal": "11800 fluorescence intensity (a.u.)"},
      {"sequence": "AGCAAATTGTCGGCTTGAATTGGTTTGGTTACTGGTTTAGCGGAGTCACCTAGTGCAG", "binding signal": "7160 fluorescence intensity (a.u.)"},
      {"sequence": "TAATACTTCTAATTAGTGTCGAAACATCCGATGTGACAGGCGGAGTCACCTAGTGCAG", "binding signal": "7480 fluorescence intensity (a.u.)"},
      {"sequence": "TACAAATTTAACAAGAATTTTGATTCTTTTCGTGGTTGCACGGAGTCACCTAGTGCAG", "binding signal": "12000 fluorescence intensity (a.u.)"},
      {"sequence": "TATAATTTATCTAATTAAGGTCTTTGAAAACATGCTGTGACGGAGTCACCTAGTGCAG", "binding signal": "34900 fluorescence intensity (a.u.)"},
      {"sequence": "CGAAATATAACAAATTTAGTATCAAACTACATACCTGTAACGGAGTCACCTAGTGCAG", "binding signal": "6080 fluorescence intensity (a.u.)"},
      {"sequence": "TCTTTTCTTTTCCTTGATTAATGTGAGAATTTCTAGTCTCCGGAGTCACCTAGTGCAG", "binding signal": "5180 fluorescence intensity (a.u.)"},
      {"sequence": "CTTCGGTTGTCATCTAAATATGATGGATTGCCCCTGCTTCCGGAGTCACCTAGTGCAG", "binding signal": "3620 fluorescence intensity (a.u.)"},
      {"sequence": "GATTAATTGGGAATTGAAAGCATATGCACTGCATTTGGTACGGAGTCACCTAGTGCAG", "binding signal": "37200 fluorescence intensity (a.u.)"},
      {"sequence": "CACTGATATATAATAAGCACCCAACATGTTATGGAACGATCGGAGTCACCTAGTGCAG", "binding signal": "3290 fluorescence intensity (a.u.)"},
      {"sequence": "AAGATACACGATTGATTCATTGTTTGCACCAACAATATGCCGGAGTCACCTAGTGCAG", "binding signal": "5310 fluorescence intensity (a.u.)"},
      {"sequence": "TATAACTAATTATTTAATCGTTAATAAGCTGTTCCGCTAACGGAGTCACCTAGTGCAG", "binding signal": "25600 fluorescence intensity (a.u.)"},
      {"sequence": "CATTGATTGACATTGTTGAGGCAGTACTGTTACAGTTGAGCGGAGTCACCTAGTGCAG", "binding signal": "59400 fluorescence intensity (a.u.)"},
      {"sequence": "AGCCCGATAATTAGATTGATTATAGACATGACTACATATACGGAGTCACCTAGTGCAG", "binding signal": "18200 fluorescence intensity (a.u.)"},
      {"sequence": "GTTAATTAATTTCATTAGCAACTGCGTACTCTGTCATGTTCGGAGTCACCTAGTGCAG", "binding signal": "37900 fluorescence intensity (a.u.)"},
      {"sequence": "CCTGCCTGATTTAAAGCAGTTGAAACAAAGCAAAGCGCTTCGGAGTCACCTAGTGCAG", "binding signal": "5610 fluorescence intensity (a.u.)"},
      {"sequence": "TATGTGGGTGATTTGTTACAACGGCGCGTTCCATAATATTCGGAGTCACCTAGTGCAG", "binding signal": "4360 fluorescence intensity (a.u.)"},
      {"sequence": "AAAACTAAATTGAAATATCAATGATATTATTTTCAGAAAACGGAGTCACCTAGTGCAG", "binding signal": "6060 fluorescence intensity (a.u.)"},
      {"sequence": "GAATAATTAATAATAATCACAACAAGGTGATGTTAGAGATCGGAGTCACCTAGTGCAG", "binding signal": "27000 fluorescence intensity (a.u.)"},
      {"sequence": "GAGCCCACATTGATTTGAAGGTTCAAACTTTGTAACTTTTCGGAGTCACCTAGTGCAG", "binding signal": "5060 fluorescence intensity (a.u.)"},
      {"sequence": "CTCTACAGTAAATCAAACAGTAATCACACTCCAAACAAAACGGAGTCACCTAGTGCAG", "binding signal": "5420 fluorescence intensity (a.u.)"},
      {"sequence": "ATCAATTAATTTATCGTGCAGCCCATGGTTTGCACTTTAGCGGAGTCACCTAGTGCAG", "binding signal": "26800 fluorescence intensity (a.u.)"},
      {"sequence": "ACCGATAAATAGATGAATTTCCCAACTAAAGCTGGCGACTCGGAGTCACCTAGTGCAG", "binding signal": "8370 fluorescence intensity (a.u.)"},
      {"sequence": "TATATATATATATATATATAGACACACACATCAACAACAACGGAGTCACCTAGTGCAG", "binding signal": "16000 fluorescence intensity (a.u.)"},
      {"sequence": "TCACATTGTACAATCACCTAGAAATTTGCTCACTTCCATGCGGAGTCACCTAGTGCAG", "binding signal": "3300 fluorescence intensity (a.u.)"},
      {"sequence": "ATCGATAACATAATTAAAGTTAAGAAAAGAATTAGATCTACGGAGTCACCTAGTGCAG", "binding signal": "9440 fluorescence intensity (a.u.)"},
      {"sequence": "CCTGATTGGAAGATGCTTGACGGAATATATGCAATAACTGCGGAGTCACCTAGTGCAG", "binding signal": "42700 fluorescence intensity (a.u.)"},
      {"sequence": "ACGTGATAGCAATTTAATAAATTTTAAGTAAAATCATACTCGGAGTCACCTAGTGCAG", "binding signal": "32900 fluorescence intensity (a.u.)"},
      {"sequence": "TTCCTTGAATGAATAGACTAACTTATTGTTGCTAGAGTTTCGGAGTCACCTAGTGCAG", "binding signal": "4880 fluorescence intensity (a.u.)"},
      {"sequence": "AGTAGTTAATTGCTTTTGATTGACTTGACTGAGTTTGTGTCGGAGTCACCTAGTGCAG", "binding signal": "43900 fluorescence intensity (a.u.)"},
      {"sequence": "AAAAGCAGGTTTACTTACGCCTCATGTTCTCACACTAATTCGGAGTCACCTAGTGCAG", "binding signal": "24400 fluorescence intensity (a.u.)"},
      {"sequence": "TTAAGAGAGACGATTCAATCAAGAGCGAGAGAGGAGGGAGCGGAGTCACCTAGTGCAG", "binding signal": "4920 fluorescence intensity (a.u.)"},
      {"sequence": "ATTTCAATTATATATGGTGCATGCATGGCATCCACGCCTCCGGAGTCACCTAGTGCAG", "binding signal": "9260 fluorescence intensity (a.u.)"},
      {"sequence": "ACTGACACTGATTGTACCAGTATAACAAGCAACACATACACGGAGTCACCTAGTGCAG", "binding signal": "23900 fluorescence intensity (a.u.)"},
      {"sequence": "ACACAGACTTAATTTGTAAGTTTTGTGGCAGTCAAACAAGCGGAGTCACCTAGTGCAG", "binding signal": "10300 fluorescence intensity (a.u.)"}
    ]}
  ]
}
